{"source": "PubChem BioAssay AID588342", "about": "(National Center for Advancing Translational Sciences (NCATS), 2011)", "note": "Screen size: about 360,000 compounds; about 25,000 (6.9%) were called active. Inconclusive means that the source gave no clear call. Such entries were picked first, then a sample of the others. Calls come from the whole dose curve; as a rule, active = well fitted inhibition curve with a large enough effect; inconclusive = small, poorly fitted or top-dose-only effect; inactive = flat fitted curve, though single readings scatter. Potencies beside an inconclusive call are fits to weak or partial responses and may not hold up. Potency is the fitted concentration of half-maximal effect; tags give direction and shape of the fitted curve."}
{"molecular_target": "Luciferin 4-monooxygenase (Photinus pyralis) (UniProt P08659)", "sequence (P08659 whole entry, looked up)": "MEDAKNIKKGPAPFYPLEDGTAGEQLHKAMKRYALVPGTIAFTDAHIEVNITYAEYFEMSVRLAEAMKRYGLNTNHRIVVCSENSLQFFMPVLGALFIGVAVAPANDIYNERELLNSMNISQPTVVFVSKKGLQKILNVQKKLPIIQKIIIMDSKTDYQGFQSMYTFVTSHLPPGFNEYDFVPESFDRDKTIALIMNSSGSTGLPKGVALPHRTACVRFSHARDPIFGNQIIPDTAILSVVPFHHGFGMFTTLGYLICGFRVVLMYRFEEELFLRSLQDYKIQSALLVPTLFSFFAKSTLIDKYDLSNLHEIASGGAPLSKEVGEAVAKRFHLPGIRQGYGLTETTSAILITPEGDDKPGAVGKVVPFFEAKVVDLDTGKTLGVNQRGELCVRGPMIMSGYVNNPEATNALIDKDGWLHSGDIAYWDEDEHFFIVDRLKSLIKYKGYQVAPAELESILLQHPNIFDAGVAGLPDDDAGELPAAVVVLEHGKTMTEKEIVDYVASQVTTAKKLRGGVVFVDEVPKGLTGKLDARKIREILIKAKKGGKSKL", "test": "qHTS profiling assay for firefly luciferase inhibitor/activator using purifed enzyme and Km concentrations of substrates (counterscreen for miR-21 project); note: nearly all actives have a fitted effect of over 55% in size", "details": "purified FLuc, luminescence inhibition; series mostly up to 57.5 µM", "outline": "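Purified P. pyralis luciferase (10nM final) with 10uM D-luciferin and 10uM ATP (Km levels) in 50mM Tris acetate pH 7.5, 10mM Mg acetate, 0.01% Tween-20, 0.05% BSA; qHTS 6-point titration, ~60 µM downward; luminescence read.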"}
{"smiles": "CN1C(=O)N(S(=O)(=O)c2ccc(F)c(F)c2F)C(=O)C1(C)C", "Potency": "inactive"}
{"smiles": "CSc1ccc(/C=C2\\C(=N)N3N=C(CC(=O)N4CCCCC4)SC3=NC2=O)cc1", "Potency": "inconclusive: 23.9 µM [inhibitor, single point]"}
{"smiles": "COc1ccc(CSc2nc3ccncc3n2CC(=O)Nc2cc(C)cc(C)c2)cc1", "Potency": "active: 2.39 µM"}
{"smiles": "COC(=O)c1ccc(Oc2nc(Nc3ccc(C)c(C)c3)nc(N(C)C)n2)cc1", "Potency": "inconclusive: 37.9 µM [inhibitor, partial curve, poor fit]"}
{"smiles": "CCc1ccc2oc(C(=O)Nc3ccccc3OC)cc(=O)c2c1", "Potency": "inactive"}
{"smiles": "CCc1cc(=O)oc2c3c(cc(OCC(=O)NCCC(=O)O)c12)OC(C)(C)CC3", "Potency": "inconclusive: 23.9 µM [inhibitor, single point]"}
{"smiles": "O=C(Cn1c(=O)n(-c2ccc(F)cc2)c(=O)c2sc3ccccc3c21)NC1CCCC1", "Potency": "inactive"}
{"smiles": "Fc1ccccc1-c1nc(-c2cnccc2C(F)(F)F)no1", "Potency": "inconclusive: 37.9 µM [inhibitor, partial curve, poor fit]"}
{"smiles": "COc1ccc(/C=C\\C(=O)NCC(=O)N/N=C/c2ccc(O)cc2O)cc1", "Potency": "inconclusive: 12 µM [inhibitor, partial curve, poor fit]"}
{"smiles": "COc1ccc(-n2nc3ccc(NC(=O)c4c(OC)cccc4OC)cc3n2)cc1", "Potency": "inconclusive: 7.57 µM [inhibitor, full curve]"}
{"smiles": "CCc1nc2ccccc2n2c(-c3ccc(C)cc3)c3c(=O)n(C)c(=O)n(C)c3c12", "Potency": "inconclusive: 12 µM [inhibitor, partial curve, poor fit]"}
{"smiles": "CCC(C)NC(=O)C1CCCN(c2nc(C)cc(OC)n2)C1", "note": "(centres undefined)", "Potency": "inactive"}
{"smiles": "COc1ccc(OC)c(NC(=O)c2ccc(CSc3nnc(C)s3)cc2)c1", "Potency": "inconclusive: 30.1 µM [inhibitor, partial curve, poor fit]"}
{"smiles": "COCCCC1CCN(C(=O)c2cc(COc3cc(C)ccc3C)on2)CC1", "Potency": "active: 12 µM"}
{"smiles": "c1ccc(-c2cc(-c3ccccc3)on2)cc1", "Potency": "active: 0.757 µM"}
{"smiles": "CN(C)c1ccc(S(=O)(=O)NCC(=O)NCC2CCCCC2)cc1[N+](=O)[O-]", "Potency": "inactive"}
{"smiles": "NNC(=O)c1ccc(COc2ccc3c(c2)CCC3)cc1", "Potency": "inconclusive: 6.01 µM [inhibitor, partial curve, poor fit]"}
{"smiles": "Cc1ccc(Cc2cnc(NC(=O)C3=NCCN3)s2)cc1", "Potency": "inconclusive: 21.3 µM [inhibitor, single point]"}
{"smiles": "COc1ccc(CNC(=O)CN2C(=O)c3ccccc3C2=O)cc1", "Potency": "inconclusive: 15.1 µM [inhibitor, partial curve]"}
{"smiles": "CC(C)c1ccc(C(=O)NNC(=O)c2n[nH]c(=O)c3ccccc23)cc1", "Potency": "inconclusive: 16.9 µM [inhibitor, partial curve]"}
{"smiles": "COCCN(C(=O)CCC(=O)Nc1ccccn1)C(C(=O)NCCC(C)C)c1ccc(OC)cc1", "note": "(centres undefined)", "Potency": "inactive"}
{"smiles": "Cc1ccnc(NC(=O)CNC(=O)c2ccccc2Br)c1", "Potency": "inconclusive: 21.3 µM [inhibitor, partial curve, poor fit]"}
{"smiles": "O=C(NN(C(=O)C1CC1)c1nc2ccccc2s1)C1CC1", "Potency": "inconclusive: 19 µM [inhibitor, partial curve]"}
{"smiles": "COc1ccc2c3n([n+]([O-])c2c1)CCN=C3c1ccc(C)cc1", "Potency": "inconclusive: 26.9 µM [inhibitor, partial curve, poor fit]"}
{"smiles": "O=C(NCc1cccs1)C1CCCN1C(=O)Nc1ccc(F)cc1", "note": "(centres undefined)", "Potency": "inactive"}
{"smiles": "CC1(C)CC(=O)C(C=Nc2ccc(N)cc2)=C(O)C1", "Potency": "inconclusive: 33.8 µM [inhibitor, partial curve, poor fit]"}
{"smiles": "COc1ccccc1NC(=O)C1=C(C)Nc2c(C(=O)Nc3ccc(C)cc3)cnn2C1c1cccc(OC)c1OC", "note": "(centres undefined)", "Potency": "inactive"}
{"smiles": "Fc1ccc(CSc2nnc(-c3ccco3)o2)cc1", "Potency": "inconclusive: 30.1 µM [inhibitor, single point]"}
{"smiles": "Cc1ccc(C(=O)Nc2nn(C)c3cccc(F)c23)cc1", "Potency": "inconclusive: 16.9 µM [inhibitor, partial curve]"}
{"smiles": "CC(=O)c1cccc(NC(=O)COC(=O)c2cccc(N3C(=O)c4ccccc4C3=O)c2)c1", "Potency": "inconclusive: 37.9 µM [inhibitor, single point]"}
{"smiles": "O=[N+]([O-])c1ccc(S(=O)(=O)Nc2nc(-c3ccccc3)cs2)cc1", "Potency": "inactive"}
{"smiles": "CC(C)(C)SCCNC(=O)c1ccccc1", "Potency": "inconclusive: 23.9 µM [inhibitor, partial curve]"}
{"smiles": "O=C1N(c2ccccc2C(F)(F)F)O[C@]1(c1ccccc1)C1CCCCC1", "Potency": "inactive"}
{"smiles": "Cc1ccsc1/C=N/NC(=O)C(=O)NCC(C)C", "Potency": "inconclusive: 37.9 µM [inhibitor, single point]"}
{"smiles": "CCc1c(C(=O)Nc2ccc(OC)cc2)[nH]c(C)c1C(C)=O", "Potency": "inconclusive: 26.9 µM [inhibitor, partial curve, poor fit]"}
{"smiles": "COc1ccc(CNC(=O)Cc2c(C)c3cc4c(C)coc4cc3oc2=O)cc1", "Potency": "inactive"}
{"smiles": "Cc1cc(N2CCN(C)CC2)ccc1NC(=O)c1ccc(-c2ccc(Cl)cc2)o1", "Potency": "inconclusive: 16.9 µM [inhibitor, partial curve]"}
{"smiles": "CS(=O)(=O)N1CCN(C(=O)c2cc(-c3cccs3)nc3ccccc23)CC1", "Potency": "inconclusive: 23.9 µM [inhibitor, single point]"}
{"smiles": "COC1CCCN(Cc2c(C(=O)N3CCN(C4CCCCC4)CC3)nc3ccccn23)C1", "note": "(centres undefined)", "Potency": "inactive"}
{"smiles": "CN1C(=O)/C(=C\\c2ccccc2)Sc2ccc(C(=O)N3CCN(c4ccccn4)CC3)cc21", "Potency": "inconclusive: 30.1 µM [inhibitor, partial curve, poor fit]"}
{"smiles": "C=CCn1c(C)csc1=Nc1ccccc1C", "Potency": "inconclusive: 37.9 µM [inhibitor, partial curve, poor fit]"}
{"smiles": "Fc1cccc(/C=N/Nc2ccc3ccccc3n2)c1", "Potency": "active: 0.478 µM"}
{"smiles": "COc1ccc(S(=O)(=O)N2CCC(N3CCN(Cc4ccccc4)C(=O)C3=O)CC2)cc1", "Potency": "inactive"}
{"smiles": "O=C(Nc1cccc(S(=O)(=O)NCc2ccco2)c1)c1cc(-c2ccc(F)cc2)nc2ccccc12", "Potency": "inconclusive: 26.9 µM [inhibitor, single point]"}
